Over roughly 110,000 compounds, “z-score” has its median near -0.1; the highest 2% begin near 2. The list shows a part of the results. Activity calls are given as the source filed them.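 The calls were made as follows: active = z-score in the third read window above 3 or below -3; inactive = the rest.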
Biological target: Metabotropic glutamate receptor 8 (Rattus norvegicus) (UniProt P70579)
Assay: rat mGluR8 modulators via GIRK flux, primary screen, cell-based, thallium flux, HTS (AID 488969)
Settings: HEK293 rat mGluR8, GIRK (G protein-gated inwardly rectifying potassium channel) thallium flux, FluoZin2; at 10 µM; stronger effect = higher value; submaximal glutamate (EC20) added with thallium

Chain of UniProt P70579 (P70579 whole entry, looked up): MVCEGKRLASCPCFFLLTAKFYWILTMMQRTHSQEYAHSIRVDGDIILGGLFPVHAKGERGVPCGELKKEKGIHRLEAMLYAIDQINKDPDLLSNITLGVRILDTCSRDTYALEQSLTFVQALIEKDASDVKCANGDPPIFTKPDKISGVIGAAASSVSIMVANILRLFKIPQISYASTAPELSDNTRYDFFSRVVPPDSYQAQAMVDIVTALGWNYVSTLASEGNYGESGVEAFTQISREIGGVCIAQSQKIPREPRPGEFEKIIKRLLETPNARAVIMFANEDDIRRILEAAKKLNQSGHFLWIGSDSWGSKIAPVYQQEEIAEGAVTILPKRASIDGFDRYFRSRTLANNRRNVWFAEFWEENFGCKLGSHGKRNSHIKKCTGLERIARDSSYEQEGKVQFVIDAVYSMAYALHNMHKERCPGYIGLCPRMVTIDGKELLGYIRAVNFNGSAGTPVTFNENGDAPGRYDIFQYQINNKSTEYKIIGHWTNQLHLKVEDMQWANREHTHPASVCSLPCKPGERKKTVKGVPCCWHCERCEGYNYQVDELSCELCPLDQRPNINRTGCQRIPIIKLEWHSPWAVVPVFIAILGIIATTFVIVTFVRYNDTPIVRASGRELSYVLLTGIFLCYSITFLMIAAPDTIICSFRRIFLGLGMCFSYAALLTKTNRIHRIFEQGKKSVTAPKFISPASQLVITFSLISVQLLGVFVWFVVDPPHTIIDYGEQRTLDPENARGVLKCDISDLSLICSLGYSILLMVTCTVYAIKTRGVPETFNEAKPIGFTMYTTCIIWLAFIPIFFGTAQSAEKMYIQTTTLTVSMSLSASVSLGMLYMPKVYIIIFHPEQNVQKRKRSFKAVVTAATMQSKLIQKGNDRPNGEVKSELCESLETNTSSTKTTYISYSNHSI

Structure (SMILES) | z-score
CN(C)c1ccc(C(=O)c2ccc(O)cc2O)cc1 | -0.399
c1ccc(CCn2c(C3CC3)nc3ccccc32)cc1 | -0.659
CCN(Cc1ccccc1)C(c1cccc(C#N)c1)c1nnnn1C(C)(C)C (stereo not drawn) | 0.275
CCn1c(SCC(=O)N2CCOCC2)nc(O)cc1=O | -0.0054
CCCC(C(=O)NCC1CCCO1)N(Cc1ccco1)C(=O)CNS(=O)(=O)c1ccc(F)cc1 (stereo not drawn) | -0.809
O=C(CSc1nc2ccccc2s1)N1N=C(c2cccs2)CC1c1ccc(F)cc1 (stereo not drawn) | -0.0436
CCOC(=O)c1ccc(S(=O)(=O)N2CCC(C(=O)OCC)CC2)cc1 | 0.34
O=C(O)c1nc2ccccc2nc1C(=O)O | -0.495
CS(=O)(=O)N(CC(=O)N1CCCCCC1)c1ccc2c(c1)OCCO2 | 0.0779
COn1c(-c2ccc(Cl)cc2)nc2ccc(Cl)cc21 | -0.214
CCCN(CC(=O)Nc1ccccc1C)C(=O)/C=C/c1cccs1 | -0.124
Cc1ccc(C(=O)NN(C)c2nc3ccccc3nc2C(F)(F)F)cc1 | 0.198
O=C(O)c1ccccc1SCc1ccc2c(c1)OCO2 | -0.169
O=S(=O)(c1cccc(Cl)c1Cl)N1CCCCC1 | -0.119
COc1cccc(NC(=O)Nc2ccc3nsnc3c2)c1 | -0.514
S=C(Nc1ccccc1)Nc1nc2ccccc2n1CCOc1ccc(Cl)cc1 | 1.72
N=C1C(c2ccc(Br)cc2)=C(O)C2CCc3ccccc3N12 (stereo not drawn) | -1
CC(=O)N1C(Nc2ccc(Cl)cc2)CCN1c1ccccc1 (stereo not drawn) | -0.233
CCn1nnc(NC(=O)COc2cc(C)ccc2C(C)C)n1 | -0.0287
C=CCn1c(NCc2c[nH]c3ccccc23)nc2ccccc21 | -1.62
Cc1ccc(C2CC(c3ccc(Cl)cc3)=NNC2=O)cc1 (stereo not drawn) | -0.0691
CCOC(=O)CC1=Nc2ccccc2NC(=O)C1 | 0.695
CCCn1nc2cc(C(=O)NCc3ccccc3)ccc2c1OCC | -0.0713

Structure (SMILES) | z-score
CN(C)C(C)(C)C#CCCCCC#CC(C)(C)N(C)C | -0.195
Cc1cc(C)n(-c2ccc(C)c(Cl)c2)n1 | -0.078
CCN(/N=C/C=C/c1ccccc1)c1cc(=O)n(C)c(=O)[nH]1 | -0.682
CC(=O)c1ccc(-n2nnnc2SCC(=O)Nc2sc(C)c(C)c2C#N)cc1 | -0.133
CCCS(=O)(=O)c1c(S(=O)(=O)CCC)c2c(N)cccn2c1C(=O)c1ccccc1 | 0.09
CC(=O)/C(=N\Nc1cccc(Cl)c1)Sc1cccc2cccnc12 | 0.635
CC(C)c1nnc(NC(=O)CCC(=O)N2CCN(Cc3ccccc3)CC2)s1 | 0.83
Cc1cc(C)cc(NC(=O)CN2CCN(CCN=CC3=C(O)CC(C)(C)CC3=O)CC2)c1 | 0.0426
COc1cc(/C=C(/C#N)c2ccc(C)cc2)ccc1Oc1ccc([N+](=O)[O-])cn1 | -0.0458
COc1ccc(CNC(=O)COC(=O)c2ccc(OCc3c(C)noc3C)cc2)cc1OC | -0.353
CN1CCN(c2ccc([N+](=O)[O-])cc2/C=N/NC(=O)c2ccc(F)cc2)CC1 | -0.503
CCOc1cccc(CNc2ccc(O)cc2)c1OCc1ccccc1Cl | -0.208
Cc1noc2ncc(C(=O)c3cc(F)ccc3O)cc12 | 0.257
CCN1C(=O)c2ccc(C(=O)O)cc2C1=O | -0.183
CNC(=S)Nc1cc(OC)ccc1OC | -0.117
Cc1ccccc1OCC(=O)N/N=C1\SCC(=O)N1Cc1ccccc1 | -0.0816
CCN(CC)CCOC(=O)c1ccc(Cl)cc1 | -0.0542
O=C(Nc1ccccc1C(=O)NCc1cccnc1)c1ccco1 | 0.171
CCCc1nc2ccccc2c(=O)n1/N=C/c1c(C)[nH]n(-c2ccc(C)cc2)c1=O | 1.38
COC(=O)CC1C(=O)NCCN1C(=S)NC(=O)c1ccccc1[N+](=O)[O-] (stereo not drawn) | -0.0299
O=C(CNC(=O)c1ccc(Br)o1)Nc1cccc(-c2cnc3ccccc3n2)c1 | -0.0702
O=C(Cn1c(=O)sc2ccccc21)Nc1ccccc1 | -0.129
COC(=O)C1=C(C)C(c2cccs2)NC(=O)N1C (stereo not drawn) | 0.144

Structure (SMILES) | z-score
O=C1CC(c2ccco2)CC(O)=C1C=NCCN1CCNCC1 (stereo not drawn) | -0.022
COc1ccccc1/C=C/C=N/N1CCN(c2ccccn2)CC1 | -0.0475
Cc1ccc2c(c1)NC(=O)C(CC(=O)NCCCN1CCCCC1C)O2 (stereo not drawn) | 1.73
CC(=O)N1CCN(c2ccc(NCc3cccs3)cc2)CC1 | 0.699
COC(=O)c1cc(Br)c(=O)n(-c2nccs2)c1 | -0.546
CCSc1nc(C)cc(Oc2ccc(=O)n(C)n2)n1 | -0.125
CCCc1nnc(NC(=O)Cn2cnc3ccccc3c2=O)s1 | 0.0834
COc1ccccc1C(=O)Nc1ccc(S(=O)(=O)N2CCc3ccccc32)cc1 | 0.187
O=C(CN1C(=O)CSc2ccccc21)NC1CCCC1 | -0.0638
O=C(Cn1cnc2c(nnn2Cc2ccccc2F)c1=O)N1CCN(c2ccccc2)CC1 | 0.337
COc1ccc2nc3ccccc3nc2c1NC(=O)c1ccc(Cl)cc1 | -0.0793
Cc1cccc(NC(=S)N/C(=N/S(=O)(=O)c2ccccc2)c2ccccc2)c1 | 1.97
CSCCC(NC(=O)c1ccccc1)C(=O)N/N=C(\C)c1ccccc1 (stereo not drawn) | -0.429
COc1cccc(/C=N/NC(=O)c2ccc(COc3ccc(Cl)cc3Cl)o2)c1 | 0.119
COc1ccc(Cn2nnnc2C(C(C)C)N(Cc2ccco2)Cc2cccs2)cc1 (stereo not drawn) | -0.42
Cc1ccc2cc3c(NC(=O)C(C)C)nn(C)c3nc2c1 | 0.352
COC(=O)c1ccc(Cn2nc(C)cc2C)cc1 | 0.0799
Cc1ccc(CN2C(=O)CCC2C(=O)NCC2CCCO2)cc1 (stereo not drawn) | -0.456
Cc1ccc2cccc(NC(=O)C(F)(F)F)c2n1 | 0.599
CN(C)S(=O)(=O)c1cccc(-c2nnc(-c3ccccc3)o2)c1 | -0.515
Cc1ccc(O)c(C(=O)c2cc(C#N)c(=O)n(-c3c(C)n(C)n(-c4ccccc4)c3=O)c2)c1 | 0.0458
CCc1ccc(NC2CC(=O)N(c3ccc(OC)cc3OC)C2=O)cc1 (stereo not drawn) | 0.562
CC(CCc1ccccc1)NC(=O)/C=C/c1ccccc1 (stereo not drawn) | 0.369

Structure (SMILES) | z-score
Fc1ccc(CNc2ncnc3c2cnn3-c2ccccc2)cc1 | 0.365
FC(F)(F)c1cnc2c(c1)Nc1ccccc1S2 | 0.635
Cc1ccc(NS(=O)(=O)c2cc([N+](=O)[O-])ccc2NNC(=S)Nc2cccc(Cl)c2)c(C)c1 | -0.12
Cc1cc(C)n(/N=C/c2cccc(O)c2)c(=O)c1C(N)=O | -0.999
COc1cc(/C=c2\sc3n(c2=O)C(c2ccccc2)C(c2ccccc2)=NN=3)ccc1O (stereo not drawn) | -0.0197
CCOC(=O)C1=C(C)NC(=O)NC1c1c(OCC(=O)N2CCCCC2)ccc2ccccc12 (stereo not drawn) | -1.27
COc1cc(NS(=O)(=O)c2ccc(N/C=C(\C=O)c3nc4cc(Cl)ccc4o3)cc2)nc(OC)n1 | -0.434
Cc1n[nH]c(C)c1N1C(=O)c2cccc3c(Br)ccc(c23)C1=O | 1.69
O=C1CC(c2ccc(Cl)cc2)CC(O)=C1C=NCc1ccc(Cl)c(Cl)c1 (stereo not drawn) | -0.159
COc1ccc(-c2ccnc3nc(N4CCN(c5ccccc5)CC4)nn23)cc1 | 0.149
COc1ccc(Cc2nnc(SCC(=O)c3cccc([N+](=O)[O-])c3)n2C)cc1 | -0.398
O=S(=O)([O-])CCC[n+]1c(SCCCS(=O)(=O)O)sc2ccc(Cl)cc21 | -0.198
COc1ccc(-c2cn(-c3ccc(OC)cc3)c3[n+]2-c2ccccc2CC3)cc1 | 0.445
C=C(C)CSc1nc2ncc(Cl)cc2[nH]1 | -0.0787
C(=N\c1nccs1)/c1cccnc1 | -0.869
COc1ccc(Cl)cc1NS(=O)(=O)c1cc(Cl)ccc1OC | 0.315
CCOc1ccccc1N1C(=O)CC(Sc2ncccc2C(=O)O)C1=O (stereo not drawn) | 0.442
COc1ccc(CCNc2c(C)c(C)nc3ncnn23)cc1 | -0.00936
CCCCCCC(C)n1[nH]c(=O)c2c(C)cc(=O)[nH]c21 (stereo not drawn) | -0.224
Cc1ccc2nc3c(c(Nc4ccc5c(c4)OCCO5)c2c1)CCC3 | -0.499
COc1ccc(Nc2cc(C)nc3ncnn23)c(OC)c1 | -0.0948
CCCn1c(SCC(=O)NCCc2ccccc2)nnc1-c1ccccn1 | -0.348
CCOC(=O)c1c(N=CN(C)C)c(C#N)n2c1CCC2 | 0.947

Structure (SMILES) | z-score
CS(=O)(=O)N(CC(=O)N/N=C/c1cccc2c1OCCO2)c1ccccc1Br | -0.169
CCOC(=O)/C=C1\SCC(=O)N1CC(O)CN1C(=O)CS/C1=C\C(=O)OCC | 0.722
O=c1nc2scc(-c3ccccc3)n2c2ccccc12 | -0.169
CC(=O)N(C)c1ccc(NC(=O)C(F)(F)F)cc1 | -0.055
O=C(Nc1ccc2nc(C3CC3)n(Cc3ccc(F)cc3)c(=O)c2c1)c1ccco1 | -0.705
Cc1nc(C(=O)Nc2ccc(F)cc2)nn1-c1ccc([N+](=O)[O-])cc1 | 0.0551
COc1ccc(CCN=C(N)NS(=O)(=O)c2ccccc2)cc1OC | -0.155
CCOC(=O)c1c(/N=C/c2ccccc2O)sc2c1CCC2 | -0.0903
CCC(=O)NCCNc1ccc([N+](=O)[O-])cn1 | -1.5
O=C(Nc1cccc(O)c1)c1cc(S(=O)(=O)N2CCCC2)ccc1Cl | -0.113
O=C(NC(=S)Nc1nc2c(s1)CCCC2)c1ccccc1 | active: 4.37
O=C(CN1C(=O)C2CCCCC2C1=O)Nc1nc(-c2ccccn2)cs1 (stereo not drawn) | 0.425
NC(=O)Cn1c(=O)n(Cc2ccco2)c(=O)c2c3c(sc21)CCCCC3 | 0.0434
O=C(COc1ncnc2cc([N+](=O)[O-])ccc12)NCc1ccc2c(c1)OCO2 | -0.15
COc1ccc(/C=N/Nc2nc3ccccc3c(=O)n2-c2ccccc2)cc1OC | -0.0624
C=CCNc1ccc(C(=O)O)cc1 | 0.0675
Nc1nnnn1/N=C/c1ccccc1C(F)(F)F | -0.192
CCOC(=O)c1cnc2c(cnn2C)c1NCCCN(C)C | 0.215
CCCc1c(C)c2cccc(C)c2[nH]c1=O | -0.141
COc1ccc(CC(NC(C)=O)C(=O)N2CCN(C(=O)Nc3cccc(Cl)c3)CC2)cc1OC (stereo not drawn) | 0.122
CC1Cc2ccccc2N1C(=O)CSc1nc2cc3c(cc2cc1C#N)OCO3 (stereo not drawn) | 0.268

Reference: PubChem BioAssay AID488969 (Vanderbilt High Throughput Screening Facility, 2010)
